Test results from patent publication US20100173845A1, “USE OF FERTIRELIN AND DELTA-ENDORPHIN AS THERAPEUTIC AGENTS” (priority 2007, published 2010).
Where a SMILES comes first, the peptide text is derived from it. Where no end group is shown, it is not given here. [ ]: non-standard residue; d: D form. pGlu = O=C1CC[C@@H](C(=O)O)N1

System: HIV-1IIIB
Assay: HIV-1 antiviral assay (cytopathic effect, MTS staining)
Settings: for antiviral activity of positive control compounds: HIV-1 infected CEM-SS cells; for reduction of cytopathic effect (CPE) in HIV-1 infected CEM-SS cells: 10 micrograms per ml, 6 days post-infection, MTS

Row | Molecule | antiviral activity of positive control compounds | reduction of cytopathic effect (CPE) in HIV-1 infected CEM-SS cells [%]
1 | Cc1cn([C@H]2C[C@H](N=[N+]=[N-])[C@@H](CO)O2)c(=O)[nH]c1=O [AZT, zidovudine, reference compound] | expected levels of antiviral activity | 
2 | CCNC(=O)[C@@H]1CCCN1C(=O)[C@H](CCCNC(=N)N)NC(=O)[C@H](CC(C)C)NC(=O)CNC(=O)[C@H](Cc1ccc(O)cc1)NC(=O)[C@H](CO)NC(=O)[C@H](Cc1c[nH]c2ccccc12)NC(=O)[C@H](Cc1c[nH]cn1)NC(=O)[C@@H]1CCC(=O)N1 [Peptide 1] ([pGlu]HWSYGLRP-NHEt) |  | 50.4
3 | CC(C)(C)NC(=O)[C@@H]1CN(Cc2cccnc2)CCN1C[C@@H](O)C[C@@H](Cc1ccccc1)C(=O)N[C@H]1c2ccccc2C[C@H]1O [indinavir, reference compound] | expected levels of antiviral activity | 
4 | YGGFMTSEKSQTPLVTLFKNAIIKNAY [Peptide 2] |  | 29.6
